The values that follow come from PubChem BioAssay AID1745853 (National Center for Advancing Translational Sciences (NCATS), 2022).

Several values for one entry are separate records, joined by “and”; a condition that tells them apart may be missing. Equal values may be shown once. This is one part of the list. The main result of the screen is listed elsewhere. These columns were measured beside it and carry no call.

Assay in all cases: Primary Screen for Target Class Profiling of Small Molecule Inhibitors of Methyltransferases
For assay [1], the target named is Glycine N-methyltransferase (Homo sapiens) (UniProt Q14749). Particulars: purified enzyme, MTase-Glo SAH luminescence; measured here: GNMT inhibition; at 40 µM; stronger effect = lower value. The essentials:
(§1)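 Each enzyme was assayed with SAM and its substrate. SAH formation detected by MTase-Glo luminescence; single-point 40 uM screen[…].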

Assay [2] concerns the target Guanidinoacetate N-methyltransferase (Homo sapiens) (UniProt Q14353). Conditions: purified enzyme, MTase-Glo SAH luminescence; measured here: GAMT inhibition; at 40 µM; stronger effect = lower value. The method in brief:
as §1

Assay [3] has as its target Histamine N-methyltransferase (Homo sapiens) (UniProt P50135). Particulars: purified enzyme, MTase-Glo SAH luminescence; measured here: HNMT inhibition; at 40 µM; stronger effect = lower value. The essentials:
as §1

Assay [4] concerns the target Nicotinamide N-methyltransferase (Homo sapiens) (UniProt P40261). Particulars: purified enzyme, MTase-Glo SAH luminescence; measured here: NNMT inhibition; at 40 µM; stronger effect = lower value. The method in brief: as §1
Assay [5] addresses Phenylethanolamine N-methyltransferase (Homo sapiens) (UniProt P11086). Particulars: purified enzyme, MTase-Glo SAH luminescence; measured here: PNMT inhibition; at 40 µM; stronger effect = lower value. The essentials: as §1
% is scaled to controls: 0 for no effect and ±100 for the full control effect.

Regarding `CCOC(=O)c1cc2n(n1)CC(C)(C(=O)NCCC(C)C)N(c1cc(C)ccc1OC)C2=O` (stereo unspecified), the activity change, negative = inhibition in assay [1] came out at 3.58%; in assay [2], 1.34%; in assay [3], 5.32%; in assay [4], 9.04%; in assay [5] it was 1.3%.
The corresponding values for `CCCn1c(=O)c2ccc(Cl)cc2n2c(=O)n(CC(=O)c3ccc(OCC)cc3)nc12` are -1.13%, -0.243%, 5.38%, 0.338% and -0.001%.
The matching figures for `COc1cccc(CN2C(=O)c3ccc(-c4ccco4)n3CC2(C)C(=O)NC2CCCCCC2)c1` (stereo unspecified): -0.198%, 0%, 6.2%, -7.73% and 1.83%.
As to `O=C1CCc2cc(S(=O)(=O)Nc3cccc(Cl)c3)ccc2N1`, the activity change, negative = inhibition was 4.25% in assay [2], -11% in assay [4] and -7.64% in assay [5].
Consider `Cc1noc(C)c1CC(=O)N(C)C1CCc2nnc(C)n2CC1` (stereo unspecified), for which the activity change, negative = inhibition is -0.78% in assay [1]; 0.204% in assay [2]; -0.035% in assay [3]; -2.93% in assay [4]; 4.07% in assay [5].
As to `COc1cccc(CN2CCC3(CCC3OC)CC2)c1` (stereo unspecified), the activity change, negative = inhibition in assay [1] is -2.57%; in assay [2], -2.46%; in assay [3], -2.37%; in assay [4] it was 1.41%; in assay [5], -0.574%.
As to `CCCCS(=O)(=O)N[C@@H](Cc1ccc(OCCCCC2CCNCC2)cc1)C(=O)O`, the activity change, negative = inhibition is 4.75% in assay [1]; 4.43% and -6.39% in assay [2]; 13% in assay [3]; -4.15% and -17.1% in assay [4]; 8.49% and -10.7% in assay [5].
As for `COc1ccc(CC2(CO)CCNCC2)cc1`, the activity change, negative = inhibition in assay [1] was -0.771%; in assay [2], 4.94%; in assay [3] it was 4.02%; in assay [4] it was -4.97%; in assay [5], 11.8%.
The corresponding values for `CC(=O)Nc1c2n(c3ccc(F)cc13)CC(C)(C(=O)NC1CCCCC1)N(Cc1ccccn1)C2=O` (stereo unspecified) are -2.6%, -4.65%, -8.82%, -3.52% and -0.219%.
The matching figures for `CC1(C(=O)NCc2ccc(F)cc2)Cn2cnc(C(=O)NCc3cccc(Cl)c3)c2C(=O)N1C1CC1` (stereo unspecified): -11.2%, -2.07%, -6.29%, -8.83% and -8.81%.
The corresponding values for `NCCS(=O)(=O)O` are 4.38%, 10.8%, 9.28%, -6.83% and 1.33%.
Regarding `O=C(Nc1cc(C(F)(F)F)ccc1N1CCCCC1)c1ccncc1`, the activity change, negative = inhibition in assay [1] was -3.21%; in assay [2] it was 1.47%; in assay [3] it was 3.6%; in assay [4] it was -18.3%; in assay [5], -12.5%.
The matching figures for `Cc1ccc(N2CCN(S(=O)(=O)c3ccc4[nH]c(=O)[nH]c4c3)CC2)c(C)c1`: 11.8%, 1.89%, 9.57%, -1.23% and 4.7%.
Turning to `COc1cc2c(cc1OC)/C(=C/c1ccc(O)cc1)C(=O)N2`, the values for the activity change, negative = inhibition in assay [2], in assay [4] and in assay [5] were 3.55%, -30.4% and 1.51%, respectively.
In the case of `Cc1nnc(C(C)C)n1C1CC2CCC(C1)N2CC[C@H](NC(=O)C1CCC(F)(F)CC1)c1ccccc1` (stereo partly specified), the activity change, negative = inhibition is -1.02% in assay [1]; 4.5% and 0.415% in assay [2]; 11.1% in assay [3]; -13.8% and -17.7% in assay [4]; 2% and 2.57% in assay [5].
Take `CC1(C(=O)NC2CCCCC2)Cn2c(ccc2-c2ccccc2)C(=O)N1Cc1cccc(F)c1` (stereo unspecified): the activity change, negative = inhibition in assay [1] was determined as 7.21%; in assay [2], 0%; in assay [3], 6.95%; in assay [4], 0.387%; in assay [5], 3.58%.
Consider `COc1ccc(OC)c(-c2nnc3n(Cc4ccccc4)c(=O)c4ccccc4n23)c1`, for which the activity change, negative = inhibition in assay [1] is 0.64%; in assay [2], 16.1%; in assay [3], 3.31%; in assay [4], -0.828%; in assay [5], 0.555%.
The corresponding values for `Cc1ccc(CN2C(=O)c3cc4sccc4n3CC2(C)C(=O)NC2CCCC2)cc1` (stereo unspecified) are -3.24%, 1.11%, -5.14%, -9.88% and -7.32%.
The corresponding values for `COc1c2cc(c(O)c1OC)CCCCC(O)CCc1ccc(O)c-2c1` (stereo unspecified) are 0%, -8.02%, -9.67%, -21.6% and -7.61%.
For the compound `N#CC(C#N)=C(N)/C(C#N)=C/c1ccc(O)cc1`, the activity change, negative = inhibition in assay [1] was -9.57%; in assay [2], 9.71%; in assay [3], 6.06%; in assay [4], -3.79%; in assay [5], -1.38%.
The matching figures for `COC(=O)CC[C@@H](C)C1CCC2C3CCC4C[C@H](OC(C)=O)CCC4(C)C3C[C@H](O)C21C` (stereo partly specified): -0.045%, -14.9%, 12.6%, -12.4% and -2.15%.
In the case of `C[C@@H](NC(=O)C1=C[C@@H](NC(=O)Nc2ccccc2Br)[C@@H](O)[C@H](O)C1)C(N)=O`, the activity change, negative = inhibition is -3.7% in assay [1]; -3.19% in assay [2]; -1.68% in assay [3]; -9.68% in assay [4]; -7.93% in assay [5].
The matching figures for `CC1=CC2=C(C)C(=O)[C@](C)(O)[C@H](O)C2=CO1`: 2.19%, -0.584%, 0.938%, -9.98% and 1.38%.
The corresponding values for `NC(N)=NCCC[C@H](NC(=O)c1sccc1NS(=O)(=O)c1cccc2nsnc12)C(=O)O` are 0.344%, 3.6%, 8.77%, -13.2% and 3.66%.
With `CCCN1C(=O)c2cc3occc3n2CC1(C)C(=O)NC1CCCCC1` (stereo unspecified), the activity change, negative = inhibition in assay [1] is -0.41%; in assay [2], 2.8%; in assay [3], 1.81%; in assay [4] it was 7.82%; in assay [5] it was 0.299%.
The matching figures for `COc1ccc(NC(=O)Cn2nc3n(CC(C)C)c(=O)c4ccccc4n3c2=O)cc1`: -1.14%, 3.85%, 2.52%, -8.94% and -0.597%.
With `O=C(c1ccccc1F)N1CCC(N2CCCOC2=O)CC1`, the activity change, negative = inhibition in assay [1] was -1.56%; in assay [2] it was -6.24%; in assay [3], 2.88%; in assay [4] it was -6.21%; in assay [5], 0.082%.
The corresponding values for `CCOc1ccc(NC(=O)N2CCn3c(C)ccc3C2C(C)C)cc1` (stereo unspecified) are 8.96%, 0%, -4.13%, -3.19% and 1.52%.
The matching figures for `CC(=O)CC1CCC(C(C)C(=O)OCC(O)CO)O1` (stereo unspecified): 0.694%, 2.36%, 10%, -10.1% and -7.66%.
As for `COc1ccc(CN2C(=O)c3ccc(-c4ccco4)n3CC2(C)C(=O)NC2CCCCC2)cc1` (stereo unspecified), the activity change, negative = inhibition was -12.9% in assay [1]; -7.69% in assay [2]; 1.53% in assay [3]; -14% in assay [4]; -9.38% in assay [5].
